# For part of these data: Shown are results outside the selection of hits, which stands elsewhere. Records with an inconclusive call do not appear. A structure can be active in one record and inactive in another. This is a selection; strong and weak results do not stand in their true shares. The source made the active and inactive calls. Rule for the calls, unless noted: active = hit-call score of the fitted dose curve at least 0.9, where 1 is the maximum; inactive = score below 0.9.
# Key:
# [1] = read-out: Vascular cell adhesion molecule 1 (VCAM1), VCAM1 (gene 7412); assay: BSK_hDFCGF_VCAM1: BioMAP Diversity Plus: hDFCGF Assay for Vascular cell adhesion molecule 1 (VCAM1) Biomarker Activity (AID 2283065); details: actives raise or lower the signal; primary human foreskin fibroblasts;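 note: VCAM-1 protein level quantified by ELISA after 24 h chemical exposure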
# Method in brief: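 Cells are dosed, cultured for 24 h, then VCAM-1 is quantified by ELISA; signal increases and decreases are both fitted relative to DMSO.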
# [2] = target: Androgen Receptor/SRC-1 Co-activator, AR (gene 367) (UniProt P10275); assay: OT_AR_ARSRC1_0960: Odyssey Thera (OT) 16-hour HEK293T Protein-Complementation Assay for Androgen Receptor/SRC-1 Co-activator (AID 2283353; active = hit-call score of the fitted dose curve at least 0.9, where 1 is the maximum;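 note: actives raise the signal above DMSO so potency reflects increased AR and SRC-1 complex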)
# UniProt P10275, sequence (P10275 whole entry, looked up, the tested form may be a part): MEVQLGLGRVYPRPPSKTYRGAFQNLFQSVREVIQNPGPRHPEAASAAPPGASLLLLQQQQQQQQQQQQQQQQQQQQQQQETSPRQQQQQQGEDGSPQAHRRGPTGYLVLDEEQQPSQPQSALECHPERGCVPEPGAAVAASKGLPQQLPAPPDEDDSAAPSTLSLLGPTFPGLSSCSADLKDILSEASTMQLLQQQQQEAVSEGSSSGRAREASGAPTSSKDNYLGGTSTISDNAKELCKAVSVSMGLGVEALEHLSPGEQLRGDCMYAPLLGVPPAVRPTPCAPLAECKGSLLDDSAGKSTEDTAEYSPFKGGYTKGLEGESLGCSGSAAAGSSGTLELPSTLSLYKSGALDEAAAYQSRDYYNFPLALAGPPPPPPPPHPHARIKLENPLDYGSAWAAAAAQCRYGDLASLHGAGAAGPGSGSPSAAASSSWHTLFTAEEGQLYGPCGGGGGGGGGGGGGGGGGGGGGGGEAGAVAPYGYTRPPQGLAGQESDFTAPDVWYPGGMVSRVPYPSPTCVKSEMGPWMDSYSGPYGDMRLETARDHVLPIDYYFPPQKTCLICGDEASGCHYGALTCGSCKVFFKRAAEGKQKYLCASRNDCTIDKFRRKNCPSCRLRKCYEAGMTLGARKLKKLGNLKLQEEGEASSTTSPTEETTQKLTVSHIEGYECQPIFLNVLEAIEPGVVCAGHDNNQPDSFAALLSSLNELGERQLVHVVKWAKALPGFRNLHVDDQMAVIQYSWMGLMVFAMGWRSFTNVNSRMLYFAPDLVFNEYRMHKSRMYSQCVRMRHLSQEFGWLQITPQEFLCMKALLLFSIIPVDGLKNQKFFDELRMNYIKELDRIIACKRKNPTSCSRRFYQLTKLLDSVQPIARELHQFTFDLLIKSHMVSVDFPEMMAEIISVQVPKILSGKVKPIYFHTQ
# Method in brief: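 HEK293T cells stably expressing AR and SRC-1 fused to split Venus YFP fragments via (Gly4Ser)2 linkers were dosed for 16 h. Nuclear/cytoplasmic fluorescence ratio at 488 nm, ≥400 cells per image, fitted for gain of signal versus DMSO.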
# [3] = TOX21_PR_LUC_Followup_Agonist_viability: Viability Assessment in the Tox21 HEK293 Progesterone Receptor (PR) Agonism Luciferase Follow-Up Assay (AID 2283941; active = hit-call score of the fitted dose curve at least 0.9, where 1 is the maximum;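 note: loss of signal means cytotoxicity so actives lower viability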)
# Method in brief: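 HEK293-PR-A-luc cells, pre-cultured 5 days in 10% charcoal-stripped FBS, were seeded at 3,000 cells/well, rested 5 h at 37C, then given compound in DMSO for 16 h at 37C. Cellular ATP was read by CellTiter-Glo luminescence; signal loss indicates cytotoxicity.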
# CD40, CD40 (gene 958) = assay: BSK_SAg_CD40: BioMAP Diversity Plus: SAg Assay for CD40 Biomarker Activity (AID 2283088); details: actives raise or lower the signal; primary human HUVEC with PBMC
# Method in brief: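 Fluorescence ELISA read-out of CD40 from umbilical vein endothelium plus peripheral blood mononuclear cells, sampled 24 h after dosing. Values come from bidirectional curve fitting with DMSO as baseline.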
# [4] = target: human Protein Tyrosine Phosphatase Receptor Type M (PTPRM), PTPRM (gene 5797) (UniProt P28827); assay: NVS_ENZ_hPTPRM: NovaScreen (NVS) Enzymatic Assay for human Protein Tyrosine Phosphatase Receptor Type M (PTPRM) (AID 2283215; active = hit-call score of the fitted dose curve at least 0.9, where 1 is the maximum)
# UniProt P28827, sequence (P28827 whole entry, looked up): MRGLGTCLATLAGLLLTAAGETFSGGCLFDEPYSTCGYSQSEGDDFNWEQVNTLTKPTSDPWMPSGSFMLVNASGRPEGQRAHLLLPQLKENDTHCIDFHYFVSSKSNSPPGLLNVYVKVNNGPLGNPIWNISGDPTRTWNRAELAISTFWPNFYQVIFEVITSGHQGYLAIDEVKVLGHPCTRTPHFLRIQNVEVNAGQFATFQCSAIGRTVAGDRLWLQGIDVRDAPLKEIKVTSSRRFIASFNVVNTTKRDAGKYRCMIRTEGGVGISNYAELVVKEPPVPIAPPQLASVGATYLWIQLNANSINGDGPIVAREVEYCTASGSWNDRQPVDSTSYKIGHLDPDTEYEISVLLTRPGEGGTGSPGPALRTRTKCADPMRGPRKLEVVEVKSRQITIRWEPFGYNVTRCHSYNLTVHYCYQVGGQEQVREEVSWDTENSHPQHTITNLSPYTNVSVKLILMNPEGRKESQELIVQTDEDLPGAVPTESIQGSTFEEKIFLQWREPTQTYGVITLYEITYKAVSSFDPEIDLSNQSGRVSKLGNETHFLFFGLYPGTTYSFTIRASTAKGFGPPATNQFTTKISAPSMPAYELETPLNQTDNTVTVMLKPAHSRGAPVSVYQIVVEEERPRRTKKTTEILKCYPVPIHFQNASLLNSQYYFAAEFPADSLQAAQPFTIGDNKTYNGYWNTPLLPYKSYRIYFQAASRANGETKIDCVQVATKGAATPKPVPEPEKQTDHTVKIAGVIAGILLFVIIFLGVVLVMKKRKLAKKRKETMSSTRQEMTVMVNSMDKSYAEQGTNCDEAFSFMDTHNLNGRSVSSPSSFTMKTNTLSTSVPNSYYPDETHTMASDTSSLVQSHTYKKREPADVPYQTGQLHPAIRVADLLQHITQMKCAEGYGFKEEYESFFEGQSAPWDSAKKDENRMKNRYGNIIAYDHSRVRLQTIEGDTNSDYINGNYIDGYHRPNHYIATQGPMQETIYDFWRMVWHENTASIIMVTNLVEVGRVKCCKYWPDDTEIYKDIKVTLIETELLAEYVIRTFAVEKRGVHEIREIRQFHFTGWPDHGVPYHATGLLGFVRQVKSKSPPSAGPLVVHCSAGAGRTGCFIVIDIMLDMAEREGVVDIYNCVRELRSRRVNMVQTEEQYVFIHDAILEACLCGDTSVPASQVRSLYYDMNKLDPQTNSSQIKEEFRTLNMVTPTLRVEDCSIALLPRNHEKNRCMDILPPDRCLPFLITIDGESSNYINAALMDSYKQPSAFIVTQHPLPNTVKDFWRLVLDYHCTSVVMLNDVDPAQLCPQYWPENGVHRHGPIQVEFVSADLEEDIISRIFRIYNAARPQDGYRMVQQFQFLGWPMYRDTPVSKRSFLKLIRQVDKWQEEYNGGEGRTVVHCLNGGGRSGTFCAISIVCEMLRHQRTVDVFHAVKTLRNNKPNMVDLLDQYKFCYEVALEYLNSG
# Protocol: NVS_ENZ_hPTPRM is a biochemical, single-readout assay that uses extracted gene-proteins in a cell-free assay. Measurements were taken 1.33 hours after chemical dosing in a 384-well plate.NVS_ENZ_hPTPRM is one of one assay component(s) measured or calculated from the NVS_ENZ_hPTPRM assay. It is designed to make measurements of enzyme activity, a form of enzyme reporter, as detected with fluorescence intensity signals by Fluorescence and electrophoretic mobility shift technology.Data from the assay component NVS_ENZ_hPTPRM was analyzed into 1 assay endpoint. This assay endpoint, NVS_ENZ_hPTPRM, was analyzed in the positive analysis fitting direction relative to DMSO as the negative control and baseline of activity. Using a type of enzyme reporter, loss-of-signal activity can be used to understand changes in the enzymatic activity as they relate to the gene PTPRM. Furthermore, this assay endpoint can be referred to as a primary readout, because this assay has produced multiple assay endpoints where this one serves a enzymatic activity function. To generalize the intended target to other relatable targets, this assay endpoint is annotated to the phosphatase intended target family, where the subfamily is receptor tyrosine phosphatase. […]
# [5] = CCTE_Shafer_MEA_dev_inter_network_spike_interval_mean: CCTE's Neural Network Formation Assay for Mean Inter-network Spike Interval, Shafer Lab (AID 2284047)
# Method in brief: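 Primary rat cortical neurons on PEI-coated 48-well MEAs (16 electrodes/well) were exposed from plating day 0 to DIV 12, with dosing renewed at DIV 5 and 9. Recordings at DIV 5, 7, 9, 12 were collapsed by trapezoidal AUC, loss-of-signal fit vs DMSO.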
# [6] = IUF_NPC2-5_cytotoxicity_72hr: Cytotoxicity Assessment at 72 hours in the Leibniz Research Institute for Environmental Medicine (IUF) Neural Progenitor Cell Migration and Differentiation Assay for Cytotoxicity (NPC2-5) (AID 2284306; active = hit-call score of the fitted dose curve at least 0.9, where 1 is the maximum;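 note: LDH release into supernatant measured by resorufin fluorescence marking membrane damage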)
# Method in brief: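 Human fetal primary neural progenitor spheres (0.3 mm) plated on poly-D-lysine/laminin in N2 differentiation medium, exposed from day 0 at 37C. LDH-dependent resazurin-to-resorufin fluorescence in supernatant at 72 h; 7 concentrations, DMSO at most 0.1%.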
# [7] = target: Muscarinic acetylcholine receptor M2 (Homo sapiens) (UniProt P08172); assay: NVS_GPCR_hM2: NovaScreen (NVS) G Protein-Coupled Receptor Assay for human Muscarinic, M2 Receptor (AID 2283273; active = hit-call score of the fitted dose curve at least 0.9, where 1 is the maximum)
# UniProt P08172, sequence (P08172 whole entry, looked up): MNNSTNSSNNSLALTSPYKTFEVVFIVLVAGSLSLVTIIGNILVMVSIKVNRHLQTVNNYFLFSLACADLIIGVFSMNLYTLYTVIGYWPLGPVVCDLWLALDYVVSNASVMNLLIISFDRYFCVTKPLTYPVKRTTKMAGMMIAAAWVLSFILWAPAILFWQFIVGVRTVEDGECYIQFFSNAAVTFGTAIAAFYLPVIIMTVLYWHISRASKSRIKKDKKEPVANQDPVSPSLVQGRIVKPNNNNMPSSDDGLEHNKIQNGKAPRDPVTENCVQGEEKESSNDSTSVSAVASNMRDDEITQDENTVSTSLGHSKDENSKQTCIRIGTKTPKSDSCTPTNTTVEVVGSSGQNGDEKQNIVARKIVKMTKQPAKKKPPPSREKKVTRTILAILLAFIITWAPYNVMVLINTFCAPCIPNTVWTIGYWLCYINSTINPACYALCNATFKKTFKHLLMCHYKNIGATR
# Method in brief: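 Radioligand displacement on human M2 receptor membranes from CHO cells, 1 h incubation, filtration with scintillation counting. Primary screen in duplicate at 25 uM; actives retested in concentration series; loss of signal fitted versus DMSO.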
# [8] = read-out: Interleukin-1 alpha (IL1a), IL1A (gene 3552); assay: BSK_LPS_IL1a: BioMAP Diversity Plus: LPS Assay for Interleukin-1 alpha (IL1a) Biomarker Activity (AID 2283080); details: actives raise or lower the signal; primary human HUVEC with PBMC
# Method in brief: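 Measured: IL-1 alpha via ELISA at 24 h in LPS-activated human umbilical vein endothelium–PBMC co-culture. Baseline: DMSO, bidirectional fitting.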
# CYP2C9 (gene 1559) = assay: LTEA_HepaRG_CYP2C9: Life Technologies and Expression Analysis (LTEA) Assay for CYP2C9 using HepaRG (AID 2283484); details: actives raise or lower the signal; mRNA level, 48 h
# Method in brief: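 Differentiated human HepaRG cells in serum-free induction medium were exposed 48 h to chemicals in 8-point half-log series from 100 uM (0.5% DMSO), in duplicate. CYP2C9 mRNA was measured by qRT-PCR, normalized to ACTB/GAPDH/POLR2A, with bidirectional fitting versus DMSO.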
# [9] = read-out: Cytochrome P450 3A4 (Homo sapiens) (UniProt P08684); assay: LTEA_HepaRG_CYP3A4: Life Technologies and Expression Analysis (LTEA) Assay for CYP3A4 using HepaRG (AID 2283487); details: actives raise or lower the signal; mRNA level, 48 h
# UniProt P08684, sequence (P08684 whole entry, looked up): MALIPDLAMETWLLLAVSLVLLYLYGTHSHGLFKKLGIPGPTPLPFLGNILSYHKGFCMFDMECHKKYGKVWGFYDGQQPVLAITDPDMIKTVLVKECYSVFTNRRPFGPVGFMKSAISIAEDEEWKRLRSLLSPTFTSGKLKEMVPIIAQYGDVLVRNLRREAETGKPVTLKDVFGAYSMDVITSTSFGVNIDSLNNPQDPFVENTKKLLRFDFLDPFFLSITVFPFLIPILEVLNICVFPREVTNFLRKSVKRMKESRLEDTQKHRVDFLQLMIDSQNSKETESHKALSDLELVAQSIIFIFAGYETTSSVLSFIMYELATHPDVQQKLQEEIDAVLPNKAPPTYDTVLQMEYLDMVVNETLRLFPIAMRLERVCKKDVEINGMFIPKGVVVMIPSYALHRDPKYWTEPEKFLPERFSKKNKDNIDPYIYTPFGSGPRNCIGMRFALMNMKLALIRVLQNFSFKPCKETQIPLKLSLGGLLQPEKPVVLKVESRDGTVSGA
# Method in brief: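 CYP3A4 transcript measured by TaqMan qRT-PCR and normalized to three housekeeping genes after 48 h chemical exposure of human HepaRG cells. Top concentration 100 uM, half-log steps, 0.5% DMSO vehicle; gain or loss fitted against DMSO baseline.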
# [10] = read-out: E-selectin (Homo sapiens) (UniProt P16581); assay: BSK_SAg_Eselectin: BioMAP Diversity Plus: SAg Assay for Eselectin Biomarker Activity (AID 2283091); details: actives raise or lower the signal; primary human HUVEC with PBMC
# UniProt P16581, sequence (P16581 whole entry, looked up): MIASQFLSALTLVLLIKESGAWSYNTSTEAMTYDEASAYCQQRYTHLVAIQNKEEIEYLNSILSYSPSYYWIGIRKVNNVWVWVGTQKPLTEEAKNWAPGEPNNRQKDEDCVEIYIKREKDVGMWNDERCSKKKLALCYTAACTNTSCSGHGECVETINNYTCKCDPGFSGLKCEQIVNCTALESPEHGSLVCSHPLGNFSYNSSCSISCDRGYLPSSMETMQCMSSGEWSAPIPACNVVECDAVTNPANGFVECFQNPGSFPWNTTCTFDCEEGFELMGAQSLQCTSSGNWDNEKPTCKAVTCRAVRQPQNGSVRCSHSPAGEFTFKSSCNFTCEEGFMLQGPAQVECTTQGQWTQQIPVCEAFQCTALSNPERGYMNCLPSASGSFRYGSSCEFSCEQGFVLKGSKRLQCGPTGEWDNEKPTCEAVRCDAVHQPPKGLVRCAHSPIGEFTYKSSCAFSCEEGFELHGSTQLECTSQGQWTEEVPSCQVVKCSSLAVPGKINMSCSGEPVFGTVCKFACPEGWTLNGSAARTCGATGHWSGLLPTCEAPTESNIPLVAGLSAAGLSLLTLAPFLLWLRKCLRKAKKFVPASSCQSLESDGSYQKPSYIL
# Method in brief: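 Primary human endothelial cells and peripheral blood mononuclear cells were co-cultured and exposed to chemical for 24 hours. E-selectin levels were then quantified by ELISA, with bidirectional curve fitting normalised to DMSO controls.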
smiles,measurement,setting,value
CC[C@H](c1ccc(O)cc1)[C@@H](CC)c1ccc(O)cc1,AC50,[1],active: 14.5 µM
same,outcome,[2],inactive
same,outcome,[3],inactive
O=C(Oc1ccccc1)c1ccccc1C(=O)Oc1ccccc1,outcome,"CD40, CD40 (gene 958)",inactive
CCCC(CCC)C(=O)O,outcome,[4],inactive
same,outcome,[5],inactive
same,AC50,[6],active: 1150 µM
CCCCCCCCCCCCCCOS(=O)(=O)O,AC50,[7],active: 39.3 µM
CCCCCCC(C)OC(=O)COc1nc(F)c(Cl)c(N)c1Cl (configuration not stated),AC50,[8],active: 30.7 µM
same,outcome,CYP2C9 (gene 1559),inactive
same,outcome,[9],inactive
CC(=O)[C@H]1CC[C@H]2[C@@H]3CC=C4C[C@@H](O)CC[C@]4(C)[C@H]3CC[C@]12C,outcome,[10],inactive
